# The campaign covered roughly 360,000 compounds. About 6,000 (1.7%) were called active. This list was built around the results that the source calls inconclusive (neither active nor inactive); the mix of calls is not that of the screen. The call rests on the fitted dose curve; in most records, active means well fitted cell-killing curve with a large enough effect; inconclusive means small, poorly fitted or top-dose-only effect, or effect the other way; inactive means flat fitted curve, though single readings scatter. No potency is given beside an inconclusive call; the fits are too rough.
# Experiment: qHTS for induction of synthetic lethality in tumor cells producing 2HG: qHTS for the HT-1080-NT fibrosarcoma cell line;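 further: NT is the 2HG producing partner of a matched IDH1 knockdown line; nearly all actives have a fitted effect of over 55% in size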
# Settings: HT-1080-NT fibrosarcoma viability, CellTiter-Glo ATP luminescence, 48 h; series mostly up to 46.1 µM
# Procedure, shortened: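 750 cells/well, RPMI + 5% FBS; 2 h settle, compound pin-transfer, 48 h at 37 degrees C. CellTiter-Glo 10 min RT, luminescence. Normalized to DMSO and media-only wells.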
# Potency means the concentration at half of the fitted maximal effect; tags describe the fitted curve by direction and shape.
row,SMILES,Potency
1,COc1ccc(NC(=O)c2nc(-n3nc(C)cc3C)ccc2Cl)cc1Cl,inactive
2,CCOc1ccc2c(c1)sc(N)[n+]2Cc1cc(C)cc2cccnc12,active: 6.51 µM
3,CC(=O)NC(CC(C)C)C(=O)NC(Cc1ccccc1)C(N)=O (stereo not given),inactive
4,COC(=O)[C@@]12C[C@@H](CC(=O)NCCC(C)C)C(=O)N(Cc3ccccc3)C1=CCC(C)(C)C2,inactive
5,O=C1NC(=O)/C(=C\c2cn(Cc3ccccc3F)c3ccccc23)N1,"inconclusive [cytotoxic, single point]"
6,CN(C)CCn1c(=N)n(CC(O)c2ccc(Cl)c(Cl)c2)c2ccccc21 (stereo not given),active: 23.1 µM
7,CCOc1ccc(C(C(=O)NC2CCCC2)N(C(=O)CNC(=O)c2ccco2)c2cccnc2)cc1 (stereo not given),inactive
8,Cc1cc(C(=O)NNC(=S)NC(=O)/C=C/c2ccccc2Cl)n[nH]1,"inconclusive [cytotoxic, single point]"
9,C=CCn1c(=N)n(CC(=O)c2ccc(OC)cc2)c2ccccc21,inactive
10,O=C(NCc1nc(-c2ccc(C(F)(F)F)cc2)no1)Nc1cc(Cl)cc(Cl)c1,"inconclusive [cytotoxic, single point]"
11,CCN(CC)C(=O)c1cc2c(=O)oc3ccccc3c2s1,"inconclusive [cytotoxic, full curve]"
12,O=C(NCc1ccco1)c1cc(-c2ccccn2)nc2ccccc12,inactive
13,O=C(Nc1nc2ccccc2[nH]1)c1cc2ccccc2o1,"inconclusive [cytotoxic, full curve]"
14,CC1Cc2ccccc2N1C(=O)C1CC(=O)N(c2ccccc2)C1 (stereo not given),inactive
15,COc1ccc(S(=O)(=O)Cc2ccc(C(=O)NCCc3cc(OC)ccc3OC)o2)cc1,"inconclusive [rising, single point]"
16,O=C(NNC(=O)c1ccc(SCC2CCCO2)c([N+](=O)[O-])c1)c1ccc(Cl)c([N+](=O)[O-])c1 (stereo not given),"inconclusive [cytotoxic, single point]"
17,O=C(N/N=C/c1cccnc1)c1cc(-c2ccc(Br)cc2)nc2ccccc12,"inconclusive [cytotoxic, full curve]"
18,COc1ccc(C(=O)CCN2CCc3cc(OC)c(OC)cc3C2)cc1,"inconclusive [cytotoxic, single point]"
19,O=c1c2ccccc2nc(-c2cccc(Cl)c2)n1O,"inconclusive [cytotoxic, single point]"
20,CCOC(=O)c1ccc(S(=O)(=O)N2CCN(C3CC(=O)N(c4ccccc4C(F)(F)F)C3=O)CC2)cc1 (stereo not given),inactive

# Reference: PubChem BioAssay AID686970 (National Center for Advancing Translational Sciences (NCATS), 2013)
